{"source": "patent US20210130473A1", "about": "“TGFßR1 INHIBITOR-ASGR ANTIBODY CONJUGATES AND USES THEREOF” (Silverback Therapeutics, Inc., priority 2019, published 2021)", "molecules": {"B1": {"name": "hzG2D-26: humanized G2D clone; VL \"grafted into the human germline sequence VKI-L1 with JK4 to generate hzG2D VLa (SEQ ID NO:131)\" (antibody)", "heavy": "QVQLVQSGAEVKKPGASVKVSCKASGYTFTGYYMHWVRQAPGQRLEWMGRINPNNGATNYNQNFKDKASLTVDTSASTAYMELSSLRSEDTAVYYCTSVNFYYWGQGTTVTVSS[… human IgG1 constant region …]", "light": "DIQMTQSPSSLSASVGDRVTITCKASQVINSYLSWFQQKPGKAPETLIYRANTLVDGVPSRFSGSGSGTDFTLTISSLQPEDFATYYCLQYAEFPYTFGGGTKVEIKRTVAAPSVFIFPPSDEQLKSGTASVVCLLNNFYPREAKVQWKVDNALQSGNSQESVTEQDSKDSTYSLSSTLTLSKADYEKHKVYACEVTHQGLSSPVTKSFNRGEC"}, "B2": {"name": "hzG2D-5: humanized G2D clone; VL \"grafted into the human germline sequence VKI-L1 with JK4 to generate hzG2D VLa (SEQ ID NO:131)\" (antibody)", "heavy": "B1 heavy with T28S, K67R, A68V, S69T, L70I, V72R, V110L", "light": "B1 light with E45K, T46S"}, "B3": {"name": "hzG2D-2: humanized G2D clone; VL \"grafted into the human germline sequence VKI-L1 with JK4 to generate hzG2D VLa (SEQ ID NO:131)\" (antibody)", "heavy": "B1 heavy with T28S, K67R, A68V, S69T, L70I, V72R, T97A, S98R, V110L", "light": "B1 light with E45K, T46S"}, "B4": {"name": "hzG2D-7: humanized G2D clone; VL \"grafted into the human germline sequence VKI-L1 with JK4 to generate hzG2D VLa (SEQ ID NO:131)\" (antibody)", "heavy": "B1 heavy with T28S, S69T, L70I, V72R, T97A, S98R, V110L", "light": "B1 light with E45K, T46S"}, "B5": {"name": "hzG2D-8: humanized G2D clone; VL \"grafted into the human germline sequence VKI-L1 with JK4 to generate hzG2D VLa (SEQ ID NO:131)\" (antibody)", "heavy": "B1 heavy with T28S, K67R, A68V, T97A, S98R, V110L", "light": "B1 light with E45K, T46S"}, "B6": {"name": "hzG2D-4: humanized G2D clone; VL \"grafted into the human germline sequence VKI-L1 with JK4 to generate hzG2D VLa (SEQ ID NO:131)\" (antibody)", "heavy": "B1 heavy with S69T, L70I, V72R, T97A, S98R, V110L", "light": "B1 light with E45K, T46S"}, "B7": {"name": "hzG2D-28: humanized G2D clone; VL \"grafted into the human germline sequence VKI-L1 with JK4 to generate hzG2D VLa (SEQ ID NO:131)\" (antibody)", "heavy": "B1 heavy", "light": "B1 light with E45K, T46S, F71Y, T72S"}, "B8": {"name": "hzG2D-30: humanized G2D clone; VL \"grafted into the human germline sequence VKI-O2 with JK4 to generate hzG2D VLb (SEQ ID NO:247)\" (antibody)", "heavy": "B1 heavy with R38K", "light": "B1 light with F36Y, E45K, T46L"}, "B9": {"name": "hzG2D-29: humanized G2D clone; VL \"grafted into the human germline sequence VKI-L1 with JK4 to generate hzG2D VLa (SEQ ID NO:131)\" (antibody)", "heavy": "B1 heavy with R38K", "light": "B1 light with E45K, T46S"}, "B10": {"name": "hzG2D-6: humanized G2D clone; VL \"grafted into the human germline sequence VKI-L1 with JK4 to generate hzG2D VLa (SEQ ID NO:131)\" (antibody)", "heavy": "B1 heavy with K67R, A68V, T97A, S98R, V110L", "light": "B1 light with E45K, T46S"}, "B11": {"name": "hzG2D-27: humanized G2D clone; VL \"grafted into the human germline sequence VKI-L1 with JK4 to generate hzG2D VLa (SEQ ID NO:131)\" (antibody)", "heavy": "B1 heavy", "light": "B1 light with E45K, T46S, Q79E, P80Y"}, "B12": {"name": "hzG2D-34: humanized G2D clone; VL \"grafted into the human germline sequence VKI-O2 with JK4 to generate hzG2D VLb (SEQ ID NO:247)\" (antibody)", "heavy": "B1 heavy with R87T", "light": "B1 light with F36Y, E45K, T46L"}, "B13": {"name": "hzG2D-3: humanized G2D clone; VL \"grafted into the human germline sequence VKI-L1 with JK4 to generate hzG2D VLa (SEQ ID NO:131)\" (antibody)", "heavy": "B1 heavy with K67R, A68V, S69T, L70I, V72R, V110L", "light": "B1 light with E45K, T46S"}, "B14": {"name": "hzG2D-32: humanized G2D clone; VL \"grafted into the human germline sequence VKI-O2 with JK4 to generate hzG2D VLb (SEQ ID NO:247)\" (antibody)", "heavy": "B1 heavy with L83F, S84H", "light": "B1 light with F36Y, E45K, T46L"}, "B15": {"name": "hzG2D-31: humanized G2D clone; VL \"grafted into the human germline sequence VKI-L1 with JK4 to generate hzG2D VLa (SEQ ID NO:131)\" (antibody)", "heavy": "B1 heavy with L83F, S84H", "light": "B1 light with E45K, T46S"}, "B16": {"name": "hzG2D-33: humanized G2D clone; VL \"grafted into the human germline sequence VKI-L1 with JK4 to generate hzG2D VLa (SEQ ID NO:131)\" (antibody)", "heavy": "B1 heavy with R87T", "light": "B1 light with E45K, T46S"}}, "note": "Where a chain is given by its changes, count along the chain named. Names and notes keep the numbering of the source.", "data": [{"target": "T1, HepG2 cells (which express ASGR1) (Homo sapiens, UniProt P07306)", "T1 construct": "endogenous in cells; host or cells: HepG2", "T1 sequence (P07306 1-291)": "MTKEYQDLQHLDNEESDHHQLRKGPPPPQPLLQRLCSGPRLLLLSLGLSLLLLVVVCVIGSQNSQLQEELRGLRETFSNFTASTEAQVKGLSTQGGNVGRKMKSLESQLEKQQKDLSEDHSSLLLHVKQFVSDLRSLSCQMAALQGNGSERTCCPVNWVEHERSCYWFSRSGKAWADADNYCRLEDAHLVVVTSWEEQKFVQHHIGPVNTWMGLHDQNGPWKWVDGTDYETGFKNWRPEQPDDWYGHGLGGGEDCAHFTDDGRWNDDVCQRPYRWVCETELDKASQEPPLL", "experiment": "Guava HepG2 cell binding screen of anti-ASGR1 mAbs", "settings": "humanized G2D clones; two numbers per cell, their meaning is not given", "description": "Additionally, hybridomas producing monoclonal antibodies (mAbs) specific for human ASGR1 were prepared from Balb/C mice immunized with ASGR1-AviHis at a service provider using their propriety protocol. Antibody heavy and light chain sequences were obtained, amplified, and cloned. Clone supernatants containing the expressed mAbs were screened for binding to a human ASGR1-IgG1Fc fusion protein, and those with a positive signal as measured by enzyme linked immunosorbent assay (ELISA) were screened for cell binding on HepG2 cells (which express ASGR1). […] The isolated mAbs were further analyzed for the additional characteristics including, for example, titer, low aggregate content following protein A purification, high titer, lack of cross-blocking of ligand GalNac, calcium sensitivity, and cross-reactivity with rat ASGR1 protein.", "values": [{"molecule": "B1", "Guava HepG2 Screen": "185/114"}, {"molecule": "B2", "Guava HepG2 Screen": "91/55"}, {"molecule": "B3", "Guava HepG2 Screen": "38/20"}, {"molecule": "B4", "Guava HepG2 Screen": "46/22"}, {"molecule": "B5", "Guava HepG2 Screen": "31/21"}, {"molecule": "B6", "Guava HepG2 Screen": "55/22"}, {"molecule": "B7", "Guava HepG2 Screen": "145/92"}, {"molecule": "B8", "Guava HepG2 Screen": "198/115"}, {"molecule": "B9", "Guava HepG2 Screen": "189/108"}, {"molecule": "B10", "Guava HepG2 Screen": "39/23"}, {"molecule": "B11", "Guava HepG2 Screen": "191/116"}, {"molecule": "B12", "Guava HepG2 Screen": "194/109"}, {"molecule": "B13", "Guava HepG2 Screen": "131/95"}, {"molecule": "B14", "Guava HepG2 Screen": "167/103"}, {"molecule": "B15", "Guava HepG2 Screen": "168/95"}, {"molecule": "B16", "Guava HepG2 Screen": "164/85"}]}]}
